B1: mAb5-3.3 (conjugate)
heavy: QVQLQQSGSELKKPGASVKVSCKASGYTFTNYGMNWVKQAPGQGLKWMGWINTYTGEPTYTDDFKGRFAFSLDTSVSTAYLQISSLKADDTAVYFCARGGFGSSYWYFDVWGQGSLVTVSSASTKGPSVFPLAPSSKSTSGGTAALGCLVKDYFPEPVTVSWNSGALTSGVHTFPAVLQSSGLYSLSSVVTVPSSSLGTQTYICNVNHKPSNTKVDKKV[letters of human IgG1 Fc with S375C (EU numbers) left out]
light: DIQLTQSPSSLSASVGDRVSITCKASQDVSIAVAWYQQKPGKAPKLLIYSASYRYTGVPDRFSGSGSGTDFTLTISSLQPEDFAVYYCQQHYITPLTFGAGTKVEIKRTCAAPSVFIFPPSDEQLKSGTASVVCLLNNFYPREAKVQWKVDNALQSGNSQESVTEQDSKDSTYSLSSTLTLSKADYEKHKVYACEVTHQGLSSPVTKSFNRGEC
B2: mAb5-3.13 (conjugate)
heavy: QVQLQQSGSELKKPGASVKVSCKASGYTFTNYGMNWVKQAPGQGLKWMGWINTYTGEPTYTDDFKGRFAFSLDTSVSTAYLQISSLKADDTAVYFCARGGFGSSYWYFDVWGQGSLVTVSSASTKGPSVFPLAPSSKSTSGGTAALGCLVKDYFPEPVTVSWNSGALTSGVHTFPAVLQSSGLYSLSSVVTVPSSSLGTQTYICNVNHKPSNTKVDKKV[letters of human IgG1 Fc with S375C (EU numbers) left out]
light: DIQLTQSPSSLSASVGDRVSITCKASQDVSIAVAWYQQKPGKAPKLLIYSASYRYTGVPDRFSGSGSGTDFTLTISSLQPEDFAVYYCQQHYITPLTFGAGTKVEIKRTCAAPSVFIFPPSDEQLKSGTASVVCLLNNFYPREAKVQWKVDNALQSGNSQESVTEQDSKDSTYSLSSTLTLSKADYEKHKVYACEVTHQGLSSPVTKSFNRGEC

Key:
[1] = system: TROP2 expressing Colo205 colon tumor xenograft; test: TROP2 expressing Colo205 colon tumor xenograft model; assay type: in vivo, CD-1 nude mice; conditions: single i.v. dose 5mg/kg (Fig. 11)
Method: Compound 3.3 was conjugated to the engineered light chain C110 and heavy chain C375 of anti-TROP2 mAb (mAb5), following the previously described method. The COLO-205 human colon adenocarcinoma cell line was obtained from American Type Culture Collection (ATCC®, CCL-222™) and maintained in RPMI-1640 medium containing 10% fetal bovine serum, 2 mM glutamine, 10 mM HEPES, 1 mM sodium pyruvate and 4.5g/L glucose. The tumor cells were grown in tissue culture flasks in a humidified incubator set at 37°C and an atmosphere of 5% CO2 and 95% air. On the day of tumor implantation, the COLO205 cells were harvested during the exponential growth phase and resuspended in 50% Geltrex™ (ThermoFisher; A14132-02) prepared in Dulbecco's Phosphate - Buffered Saline (DPBS) at 6 × 10^7 cells/mL concentration. Tumors were initiated by subcutaneous implantation of 3 × 10^6 COLO205 cells (in a 0.1 mL suspension) into the right flank of female CD-1 nude mice (CR - Crl:CD1-Foxn1nu). Tumors were measured in two dimensions and tumor volumes were calculated using formula (L × W^2)/2. Animals were pair matched when tumor volumes reached 80-140 mm^3 (designated as day 1) and injected with a single i.v. dose of 5mg/kg of anti-TROP2 mAb5-3.3 (DAR 3.6), 5mg/kg isotype mAb-VAP-3.3 (DAR 3.8), 5mg/kg mAb5 or PBS vehicle.

[2] = In vivo payload CDN retention on mAb after i.v. injection (immunoprecipitation and LC-MS); conditions: CD-1 nude mice, anti-TROP2 mAb5 conjugate
[3] = system: plasma cytokines; test: In vivo plasma cytokine induction after single i.v. injection (multiplex ELISA, Luminex); conditions: single i.v. 5 mg/kg, Balb/C mice, 2, 4, 8 and 20 hours post-injection (Fig. 6, 7)
Method: Compound 3.3 was conjugated to the engineered light chain C110 and heavy chain C375 of anti-Her2 mAb (mAb3) as described above (mAb3-3.3). Furthermore, the compound was also conjugated to anti-Her2 mAb (mAb2) via inter-chain Cys (mAb2-3.3). A single intravenous injection of 5 mg/kg mAb2-3.3 (DAR 3.8) and 5 mg/kg mAb3-3.3 (DAR 3.6) was administered to Balb/C mice via tail vein injection. Blood samples were collected from the injected animals at 2, 4, 8, and 20 hours post-injection, and plasma cytokines were measured using multiplex ELISA (Luminex).
Compound 3.3 was conjugated to anti-TROP2 mAb4 via inter-chain Cys and to the engineered light chain C110 and heavy chain C375 of anti-TROP2 mAb5, as described above. […] Blood samples were collected from the injected animals at 2, 4, 8, and 20 hours post-injection, and plasma cytokines were measured using multiplex ELISA (Luminex).

[4] = system: TROP2 expressing Bx-PC3 tumor xenograft; test: TROP2 expressing Bx-PC3 tumor xenograft model; assay type: in vivo, CB.17 SCID mice; conditions: single I.V. dose 5mg/kg on day 1 (Fig. 10)
Method: Compound 3.3 was conjugated to the engineered light chain C110 and heavy chain C375 of anti-TROP2 mAb (mAb5), following the previously described method. The Bx-PC3 human pancreatic carcinoma cell line was obtained from American Type Culture Collection (ATCC®, CRL-1687™) and maintained in RPMI-1640 medium containing 10% fetal bovine serum, 2 mM glutamine, 100 units/mL penicillin G sodium, 100 µg/mL streptomycin sulfate, 25 µg/mL gentamicin, 10 mM HEPES, 0.075% sodium bicarbonate, and 1 mM sodium pyruvate. The tumor cells were grown in tissue culture flasks in a humidified incubator set at 37 °C and an atmosphere of 5% CO2 and 95% air. On the day of tumor implantation to female CB.17 SCID mice (Charles River Laboratories), the Bx-PC3 cells were harvested during the exponential growth phase and resuspended in phosphate-buffered saline (PBS) and 50% Matrigel™ (BD Biosciences) mixture at 1 × 10^8 cells/mL concentration. Tumors were initiated by subcutaneous implantation of 1 × 10^7 Bx-PC3 cells (in a 0.1 mL suspension) into the right flank of each test animal. Tumors were measured in two dimensions and tumor volumes were calculated from caliper measurements using formula (L × W^2)/2. […]

[5] = system: TROP2 expressing HCC1954 breast tumor xenograft; test: TROP2 expressing HCC1954 breast tumor xenograft model; assay type: in vivo, SCID-beige mice
Method: Compound 3.3 was conjugated to the engineered light chain C110 and heavy chain C375 of anti-TROP2 mAb (mAb5), following the previously described method. An animal study was conducted using a TROP2-expressing HCC1954 breast cancer xenograft mouse model, with animals being pair-matched when the tumor reached a volume of 100 - 150 mm^3 (designated as day 1). They were then injected with a single intravenous dose of 2.5 or 1 mg/kg of the anti-TROP2 mAb5-3.3 conjugate (DAR 3.6), 2.5 mg/kg of isotype mAb-3.3 conjugate (DAR 3.8), 5 mg/kg of mAb5, or PBS vehicle.
Compound 3.13 was conjugated to engineered light chain C110 and heavy chain C375 of anti-TROP2 mAb5 as described above. For in vivo testing in the HCC1954 breast cancer xenograft mouse model, female SCID-beige mice at 8 to 12 weeks of age (purchased from Charles River Lab) were used for implantation. HCC1954 cells (obtained from ATCC) were cultured in RPMI medium supplemented with 10% fetal bovine serum at 37°C in a humidified incubator with 5% CO2. On the day of implantation, 1 × 10^7 HCC1954 cells were re-suspended in 100µL RPMI1640 serum free media containing 50% Matrigel and implanted subcutaneously in the right flank. After implant, tumors were measured by caliper and mice were weighed two times per week. Tumors were measured in two dimensions and tumor volumes were calculated from caliper measurements using formula (L × W^2)/2. Animals were pair matched when tumor reached volume 100 - 150 mm^3 (designated as day 1) and injected with a single i.v. dose 1 and 0.4 mg/kg anti-TROP2 mAb5-3.13 (DAR 3.6), 5mg/kg unconjugated mAb5 or 1mg/kg isotype mAb-3.13 (DAR 3.8).

[6] = system: mouse and human cytokines in HCC1954 tumors; test: Intratumoral cytokines in TROP2 positive HCC1954 mouse model (qRT-PCR); assay type: in vivo, CD-1 Nude mice; conditions: tumors collected 20 h post single i.v. dose 5mg/kg (Fig. 12)
Method: Compound 3.3 was conjugated to engineered light chain C110 and heavy chain C375 of anti-TROP2 mAb (mAb5) as described previously. For in vivo testing in the TROP2 expressing HCC1954 breast cancer xenograft mouse model, female CD-1 Nude (CR - Crl:CD1-Foxn1nu) immunodeficient outbred mice (Charles River Laboratories) at 9 to 10 weeks of age were used. HCC1954 cells (ATCC®, CRL-2338™) were cultivated in RPMI-1640 medium containing 10% fetal bovine serum, 2 mM glutamine, 10 mM HEPES, 1 mM sodium pyruvate and 4.5g/L glucose. The cells were grown in a humidified incubator set at 37°C and an atmosphere of 5% CO2 and 95% air. On the day of tumor implantation, the HCC1954 cells were harvested during the exponential growth and resuspended in 50% Geltrex™ (ThermoFisher; A14132-02) prepared in Dulbecco's Phosphate - Buffered Saline (DPBS) at 1 × 10^7 cells/mL. […] Tumors were measured in three dimensions using digital calipers to monitor growth. […]
Tumors were collected 20 h post i.v., and immediately stored in RNAprotect® Tissue Reagent (Qiagen) untill further processing. […] Relative expression of mouse and human cytokines was measured by using Luna Universal One-Step RT-qPCR Kit (Promega) according to the manufacturer protocol. qRT-PCR was run on Light Cycler 480 II (Roche) with annealing time 60°C for all tested primers.

Molecule | effect on tumor growth [1] | half-life for the warhead retention ([2]; single i.v. bolus 5 mg/kg) | plasma cytokine levels [3] | effect on tumor growth [4] | effect on tumor growth ([5]; single i.v. dose 1 mg/kg (Fig. 9)) | effect on tumor growth ([5]; single i.v. dose 2.5 mg/kg (Fig. 9)) | expression of mouse INFβ, IL6, RANTES and IP-10 and human IP10 and RANTES compared to controls [6] | half-life for the warhead retention ([2]; single i.v. bolus […]) | effect on tumor growth ([5]; single i.v. dose 0.4 mg/kg (Fig. 14)) | effect on tumor growth ([5]; single i.v. dose 1 mg/kg (Fig. 14))
B1 | tumor regressions | exceeded 10 days | significantly lower | tumor regressions | tumor growth inhibition | tumor regression | statistically significant overexpression |  |  | 
B2 |  |  |  |  |  |  |  | approximately 12 days | induced regressions | induced regressions

From patent EP4610267A1, “CYCLIC DINUCLEOTIDES AND CONJUGATES THEREOF WITH ANTIBODIES” (priority 2024, dated 2025)
